PubChem BioAssay AID1468 (National Center for Advancing Translational Sciences (NCATS), 2008)
The whole screen tested about 280,000 compounds, of which about 1,100 (0.39%) were called active. The inconclusive results got no clear call from the source; some entries with a clear call stand among them for comparison. Calls come from the whole dose curve; as a rule, active = well fitted inhibition curve with a large enough effect; inconclusive = small, poorly fitted or top-dose-only effect, or effect the other way; inactive = flat fitted curve, though single readings scatter. No potency is given beside an inconclusive call; the fits are too rough.

target: Microtubule-associated protein tau (Homo sapiens) (UniProt P10636); assay: qHTS for Inhibitors of Tau Fibril Formation, Fluorescence Polarization; settings: K18 P301L tau heparin fibrillization, Alexa594 FP, 6 h; series mostly up to 57.7 µM; activity, negative = inhibition: at the top concentration; note: nearly all actives have a fitted effect of over 55% in size
In short: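 Heparin (20 uM) drove fibril formation of recombinant tau K18 P301L, 15 uM unlabeled with 0.24 uM Alexa 594 label, for 6 hr at 37 C in 100 mM sodium acetate pH 7. Fluorescence polarization (555/632 nm) read 1 hr after 30 uM ThT.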
% is set by controls: 0 for no effect and ±100 for the full control effect; potency is the fitted concentration of half-maximal effect; tags give direction and shape of the fitted curve.

Chain of UniProt P10636 (P10636 whole entry, looked up): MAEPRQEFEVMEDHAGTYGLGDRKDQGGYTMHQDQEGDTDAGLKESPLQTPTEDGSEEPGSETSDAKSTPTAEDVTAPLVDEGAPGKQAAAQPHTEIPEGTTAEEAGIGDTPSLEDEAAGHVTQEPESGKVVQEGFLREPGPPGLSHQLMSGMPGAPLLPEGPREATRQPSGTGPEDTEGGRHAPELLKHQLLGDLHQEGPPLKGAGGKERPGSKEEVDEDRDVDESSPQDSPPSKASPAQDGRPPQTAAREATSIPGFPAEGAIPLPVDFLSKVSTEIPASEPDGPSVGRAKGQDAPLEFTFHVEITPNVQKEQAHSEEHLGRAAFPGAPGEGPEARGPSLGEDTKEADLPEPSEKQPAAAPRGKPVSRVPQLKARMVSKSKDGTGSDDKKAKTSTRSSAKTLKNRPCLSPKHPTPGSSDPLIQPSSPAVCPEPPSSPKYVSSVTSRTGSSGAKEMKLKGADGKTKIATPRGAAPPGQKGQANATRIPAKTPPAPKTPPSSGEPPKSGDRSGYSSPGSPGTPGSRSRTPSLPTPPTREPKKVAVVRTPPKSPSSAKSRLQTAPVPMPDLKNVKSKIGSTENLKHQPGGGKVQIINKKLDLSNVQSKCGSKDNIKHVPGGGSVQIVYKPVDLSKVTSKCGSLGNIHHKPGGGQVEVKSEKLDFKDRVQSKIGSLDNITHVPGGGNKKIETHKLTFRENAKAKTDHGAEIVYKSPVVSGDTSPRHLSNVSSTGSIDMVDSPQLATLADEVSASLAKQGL

| Compound | Potency | activity, negative = inhibition |
| --- | --- | --- |
| CCC(Sc1nnc(-c2ccc(OC)cc2)c(-c2ccc(OC)cc2)n1)C(=O)Nc1cccc(OC)c1 (stereo not drawn) | inconclusive [inhibitor, single point] |  |
| CCOc1cc(/C=N/NC(=O)Cn2nc([N+](=O)[O-])cc2C)cc(Br)c1OCc1ccccc1F | inconclusive [inhibitor, partial curve, poor fit] |  |
| COc1ccc(NC(=O)CS(=O)CC(=O)Nc2cc(Cl)ccc2OC)cc1 (stereo not drawn) | inconclusive [inhibitor, single point] |  |
| Cc1ccc(/C=C/c2onc(C)c2S(=O)(=O)N2CCC(C(=O)NCc3ccc(N(C)C)cc3)CC2)cc1 |  | inactive: 1.45% |
| O=C(COc1ccc(S(=O)(=O)N2CCOCC2)cc1)Nc1ccc(Cl)c(C(F)(F)F)c1 | inconclusive [inhibitor, partial curve] |  |
| Cc1cccc(-n2c(SCC(=O)N3CCCC3)nc3n[nH]c(C)c3c2=N)c1 | inconclusive [inhibitor, full curve, poor fit] |  |
| CC(=O)N1c2ccccc2C(=O)C1N1CCN(c2cc(Cl)ccc2C)CC1 (stereo not drawn) |  | inactive: -3.82% |
| Cc1noc(C)c1CSc1nc2ccccc2c(=O)n1-c1ccc(Cl)cc1 |  | inactive: 3% |
| Cc1ccc(Cn2c(N)c(S(=O)(=O)c3cccs3)c3nc4ccccc4nc32)cc1 | inconclusive [inhibitor, full curve] |  |
| CC(/C=C/c1ccco1)=N/NC(=O)Cc1cccs1 | inconclusive [inhibitor, single point] |  |
| COc1ccc2c(c1)c1c(c(=O)n(Cc3ccccc3)c(=O)n1Cc1ccc(C)cc1)n2C |  | inactive: 3.54% |
| O=C(Nc1ccc(Cl)cc1)C1CCN(S(=O)(=O)c2ccc(Br)s2)CC1 | inconclusive [inhibitor, partial curve, poor fit] |  |
| CCC(C)NC(=O)c1[nH]c2cc(OC)ccc2c1Sc1ccc(C)cc1 (stereo not drawn) |  | inactive: 1.74% |
| Nc1ccc(C(=O)OCc2csc(-c3ccccc3)n2)cc1[N+](=O)[O-] | inconclusive [inhibitor, partial curve] |  |
| COc1ccc2c(c1)CC1c3c(cc4c(c3-2)OCO4)CC[N+]1(C)[O-] (stereo not drawn) |  | inactive: 1.1% |
| CCOC(=O)c1c(NC(=S)Nc2ccccc2)sc2c1CCN(CCc1ccccc1)C2 |  | inactive: -12.1% |
| CCCn1cc(S(=O)(=O)c2ccccc2)c(=O)c2cc(F)c(N3CCCC3)cc21 |  | inactive: 2.57% |
| CC1CCCC(C)N1C(=O)CSc1nnc(NC(=O)c2cccs2)s1 (stereo not drawn) |  | inactive: 1.77% |
| COc1ccc(N2CCN(c3oc(-c4ccccc4OC)nc3C#N)CC2)cc1 | inconclusive [activator, single point] |  |
| Oc1ccc(/C=N/Nc2cc(N3CCOCC3)nc(N3CCOCC3)n2)cc1O |  | inactive: -4.97% |
| O=C(CN(CCc1ccccc1)S(=O)(=O)c1ccc(Cl)cc1)N/N=C/c1ccc2c(c1)OCO2 | inconclusive [inhibitor, partial curve] |  |
| CC(/C=N/NC(=O)CSc1ccccn1)=C\c1ccc(C(C)C)cc1 |  | inactive: 2.09% |
| CCn1cc(C(=O)NC(C)c2ccccc2)c(=O)c2cc(S(=O)(=O)N3CCc4ccccc4C3)ccc21 (stereo not drawn) |  | inactive: -5.2% |

| Compound | Potency | activity, negative = inhibition |
| --- | --- | --- |
| CCN(CC)c1ccc(NC(=O)c2ccc(=O)[nH]c2)cc1S(=O)(=O)Nc1ccccc1OC | inconclusive [inhibitor, partial curve] |  |
| O=C(O)c1cccc(Cn2c(Cl)c(/C=N/NC(=O)c3cc4ccccc4cc3O)sc2=O)c1 | inconclusive [inhibitor, single point] |  |
| CCOC(=O)CSc1c(-c2ccccc2)c2cc(Cl)ccc2[nH]c1=O |  | inactive: -7.52% |
| Cc1ccc(-c2[nH]ncc2/C=N/n2c(COc3ccccc3C)nc3ccccc3c2=O)cc1 | inconclusive [inhibitor, partial curve] |  |
| NS(=O)(=O)c1ccc(NC(=O)c2ccc(S(=O)(=O)N3CCc4ccccc43)cc2)cc1 | inconclusive [inhibitor, partial curve] |  |
| CC(C)Sc1ncc(Cl)c(C(=O)Nc2ccc(S(=O)(=O)N3CCCCC3C)cc2)n1 (stereo not drawn) |  | inactive: -3.67% |
| COC(=O)c1ccc2c(=O)n(CCCCCC(=O)NCc3ccc4c(c3)OCO4)c(=O)[nH]c2c1 | inconclusive [inhibitor, partial curve] |  |
| O=C(Nc1c(C(=O)Nc2cccc(F)c2)oc2ccccc12)c1ccc2c(c1)OCO2 | inconclusive [inhibitor, partial curve] |  |
| OC(CN1CCNCC1)Cn1c2ccc(Br)cc2c2cc(Br)ccc21 (stereo not drawn) | inconclusive [inhibitor, single point] |  |
| O=C(Cn1nc(C(F)(F)F)c2c1CCCC2)Nc1ccc(Cl)cc1 | inconclusive [inhibitor, partial curve] |  |
| COc1ccc(NC(=O)Cn2ncc3c([nH]c4ccccc43)c2=O)cc1Cl | inconclusive [inhibitor, single point] |  |
| COc1cc2nc(N3CCNCC3)nc(N)c2cc1OC | inconclusive [inhibitor, full curve, poor fit] |  |
| CCOC(=O)c1cccc(NC(=O)c2cc(-c3ccc(Cl)s3)nc3ccccc23)c1 | inconclusive [inhibitor, partial curve] |  |
| CC(=O)Nc1ccc(N2C(=O)CC(Sc3nc4ccccc4s3)C2=O)cc1 (stereo not drawn) |  | inactive: -13.1% |
| O=C(Nc1ccc(Cl)cc1)N1CCC(c2nc(-c3ccccc3Cl)no2)CC1 | inconclusive [inhibitor, partial curve, poor fit] |  |
| O=C(Nc1ccccc1Br)N1CCC(CN2CCCC2)CC1 | inconclusive [inhibitor, single point] |  |
| OC1CCN(c2cc(-c3ccccc3)nc3cc(-c4ccc(F)cc4)nn23)CC1 | inconclusive [inhibitor, single point] |  |
| CC(=O)Nc1ccc(NC(=O)C(C)OC(=O)c2ccccc2NS(=O)(=O)c2cccs2)cc1 (stereo not drawn) | inconclusive [inhibitor, partial curve] |  |
| COc1ccc(NS(=O)(=O)c2cc(NC(=O)c3cnccn3)ccc2N2CCCC2)cc1 |  | inactive: 2.44% |
| c1ccc(-c2cc3c(N4CCN(c5ccccc5)CC4)ncnc3s2)cc1 | inconclusive [activator, partial curve] |  |
| CN(C)CCNC(=O)c1ccc2c(c1)N(Cc1c(F)cccc1Cl)C(=O)c1ccccc1S2 |  | inactive: -5.68% |
| O=C(NCCCCc1ccccc1)C1CC(c2ccccc2[N+](=O)[O-])=NO1 (stereo not drawn) |  | inactive: 13.1% |
| COc1ccc(C)cc1Nc1nc(N)c2cc(OC)c(OC)cc2n1 | inconclusive [activator, single point] |  |

| Compound | Potency | activity, negative = inhibition |
| --- | --- | --- |
| CNc1ccccc1C(C)(C)c1cc(-c2ccco2)n[nH]1 | inconclusive [inhibitor, single point] |  |
| Cc1ccc(S(=O)(=O)Nc2ccc(-c3nc4ccc(C)cc4s3)cc2)cc1 | inconclusive [inhibitor, partial curve] |  |
| Cc1ccc(-n2c(C)cc(C(=S)N3CCOCC3)c2C)cc1C |  | inactive: -4.72% |
| Cc1ccc(-c2noc(-c3nnn(CC(=O)Nc4cc(Cl)ccc4C)c3N)n2)cc1 |  | inactive: -3.02% |
| Cc1ccc(CSc2nc3cccnc3n2Cc2ccc(C(=O)NCCc3cccs3)cc2)cc1 |  | inactive: -5.15% |
| COc1ccc(Cl)cc1C(=O)NNC(=O)CSc1nnnn1C | inconclusive [inhibitor, single point] |  |
| O=C(CSc1oc(-c2ccco2)nc1S(=O)(=O)c1ccc(Cl)cc1)Nc1ccc(F)cc1 | inconclusive [inhibitor, full curve, poor fit] |  |
| CN(Cc1ccco1)c1ccnc(-c2ccoc2)n1 | inconclusive [inhibitor, single point] |  |
| CCOc1ccc(NC(=O)c2oc3ccccc3c2NC(=O)c2cc3ccccc3o2)cc1 | inconclusive [inhibitor, single point] |  |
| COc1ccc(NS(=O)(=O)c2cc(NC(=O)c3cccc(OCc4c(C)noc4C)c3)ccc2OC)cc1 | inconclusive [inhibitor, single point] |  |
| c1ccc2c(c1)CCN(c1ncnc3c1[nH]c1ccccc13)C2 | inconclusive [activator, partial curve] |  |
| CCNc1nc(NCC)nc(Oc2ccc(OCC)nn2)n1 |  | inactive: 3.04% |
| CC(=O)Oc1ccc(/C=N/NC(=S)Nc2ccccc2)cc1 |  | inactive: -7.08% |
| Cn1c2c(c(=O)n(C)c1=O)C(c1ccccc1Cl)C(C#N)=C(N)O2 (stereo not drawn) | inconclusive [inhibitor, single point] |  |
| Cc1cc([N+](=O)[O-])ccc1NCc1ccccc1[N+](=O)[O-] | inconclusive [inhibitor, partial curve] |  |
| CC(=O)Nc1ccc2c(c1)ncn2C | inconclusive [inhibitor, partial curve] |  |
| COc1ccc(OC)c(NC(=O)COCc2cc(-c3ccc(F)cc3)on2)c1 | inconclusive [activator, full curve, poor fit] |  |
| NNc1nc(-c2ccccc2)cc(-c2ccccc2O)n1 |  | inactive: 4.96% |
| CCCOc1ccc(CNC(=O)c2cc3ccccn3n2)cc1 |  | inactive: -0.412% |
| CCOc1cc(/C=C/c2nc3ccccc3s2)ccc1OCC(=O)N1CCOCC1 | inconclusive [inhibitor, single point] |  |
| CCCCOC(=O)c1ccc(NC(=S)NC(=O)c2c(Cl)cnn2CC)cc1 |  | inactive: -0.491% |
| CCOC(=O)C1(CCCc2ccccc2)CCN(Cc2ccn[nH]2)CC1 | inconclusive [inhibitor, single point] |  |
